# Out of some 310,000 compounds screened, about 2,200 (0.71%) showed an effect of 50% or more. Effects have a minus sign here. The list shows a part of the results.
# Biological target: human ether-à-go-go-related gene (hERG) potassium channel (human, UniProt Q12809)
# Experiment: primary screen, population patch clamp on CHO cells stably expressing hERG
# human ether-à-go-go-related gene (hERG) potassium channel, sequence (Q12809 whole entry, looked up): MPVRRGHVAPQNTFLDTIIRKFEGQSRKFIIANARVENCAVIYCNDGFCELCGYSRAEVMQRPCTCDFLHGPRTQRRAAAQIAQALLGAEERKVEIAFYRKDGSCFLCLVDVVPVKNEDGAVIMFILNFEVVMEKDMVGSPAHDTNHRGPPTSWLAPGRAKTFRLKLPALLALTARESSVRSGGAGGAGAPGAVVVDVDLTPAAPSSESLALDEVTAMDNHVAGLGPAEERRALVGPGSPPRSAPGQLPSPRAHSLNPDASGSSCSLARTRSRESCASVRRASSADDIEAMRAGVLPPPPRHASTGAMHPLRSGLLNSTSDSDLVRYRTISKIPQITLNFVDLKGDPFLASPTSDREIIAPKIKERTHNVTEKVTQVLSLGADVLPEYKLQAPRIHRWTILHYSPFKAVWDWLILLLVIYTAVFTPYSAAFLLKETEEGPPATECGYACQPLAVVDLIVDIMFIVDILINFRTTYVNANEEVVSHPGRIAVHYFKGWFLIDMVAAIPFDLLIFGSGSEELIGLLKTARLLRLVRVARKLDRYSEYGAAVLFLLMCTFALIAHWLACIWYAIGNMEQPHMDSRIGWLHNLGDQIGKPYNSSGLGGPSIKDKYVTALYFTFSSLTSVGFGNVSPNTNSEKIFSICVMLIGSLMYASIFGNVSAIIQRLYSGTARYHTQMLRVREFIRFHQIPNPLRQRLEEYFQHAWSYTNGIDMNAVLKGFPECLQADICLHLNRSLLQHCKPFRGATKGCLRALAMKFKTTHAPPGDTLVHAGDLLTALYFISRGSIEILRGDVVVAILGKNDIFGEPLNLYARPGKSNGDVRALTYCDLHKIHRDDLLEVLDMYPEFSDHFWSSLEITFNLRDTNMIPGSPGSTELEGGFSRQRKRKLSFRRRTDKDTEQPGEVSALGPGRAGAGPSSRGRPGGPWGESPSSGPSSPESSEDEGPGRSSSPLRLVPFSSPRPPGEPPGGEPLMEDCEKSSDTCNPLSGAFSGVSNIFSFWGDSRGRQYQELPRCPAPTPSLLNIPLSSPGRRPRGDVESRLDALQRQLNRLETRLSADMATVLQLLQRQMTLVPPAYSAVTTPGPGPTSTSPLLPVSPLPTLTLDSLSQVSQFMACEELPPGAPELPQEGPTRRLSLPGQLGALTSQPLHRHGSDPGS
row,Structure (SMILES),"hERG current change (%, negative = inhibition) at 1uM"
1,CCCCN(C)C(=O)C1CCN(Cc2cccnc2)CC1,10.1%
2,Cc1ccc2c(c1)N(CC(=O)NC1CCCCC1C)C(=O)CO2 (centres unmarked),4.36%
3,O=C1CCN(c2ncccc2[N+](=O)[O-])CC1,10.2%
4,O=S(=O)(NCCc1ccccc1)c1ccccc1,8.41%
5,N#C/C(=C\c1c(N2CCC(C(N)=O)CC2)nc2ccccn2c1=O)C(=O)NC1CCCCC1,17.3%
6,Cc1ccc(C(=O)Nc2ccc(S(=O)(=O)N3CCN(C)CC3)cc2)o1,12.8%
7,O=C(COC(=O)c1ccc(Cl)nc1)Nc1nnc(-c2ccccc2)o1,9.69%
8,Cc1cc(OCn2ccc(C(=O)O)n2)ccc1Cl,7.87%
9,O=C(NCc1ccco1)c1ccccc1NS(=O)(=O)c1ccc2c(c1)OCCO2,-3.13%
10,Cl.O=C(CN1CCCCC1)Nc1cccc(Cl)c1,-9.48%
11,O=[N+]([O-])/C(=C\Nc1ccc(F)cc1F)S(=O)(=O)c1ccccc1,16.4%
12,CCN(CC1COc2ccccc2O1)C(=O)CN1C(=O)NC(C)(c2ccc(C)cc2)C1=O (centres unmarked),3.82%
13,CCOC(=O)C1=C(C)Nc2ccccc2N=C1NC(=O)c1cccc(S(=O)(=O)N(C)C)c1,10.4%
14,COc1cccc(C(=O)NCc2cn3ccsc3n2)c1,11.4%
15,CCS(=O)(=O)N1CCN(C(=O)c2ccco2)CC1,7.95%
16,CC(C)CCOC(=O)C1C(c2ccccc2)C(C(=O)O)C1c1ccccc1 (centres unmarked),10.8%
17,COc1ccc(C(=O)Nc2ccccc2)cc1NC(=O)c1cccs1,-11%
18,Cc1c(C)c2c(OCC(=O)N[C@@H](C)C(=O)O)cc3c(c2oc1=O)CCC(C)(C)O3,13.2%
19,O=C(COc1ccccc1)N1CCN=C1SCc1ccc(F)cc1,-5.44%
20,Cc1nn(-c2ccccc2)c(Cl)c1/C=C1/C(=N)N2N=C(C(C)C)SC2=NC1=O,7.49%
21,CN(C1CCCCC1)S(=O)(=O)c1ccc(NC(=O)CCC(=O)O)cc1,4.75%
22,Cc1c(NC(=O)N(C)c2ccccc2)c(=O)n(-c2ccccc2)n1C,13.7%

row,Structure (SMILES),"hERG current change (%, negative = inhibition) at 1uM"
1,COc1ccc2nc(C)c3c(c2c1)OC(C(C)(Cl)Br)C3 (centres unmarked),-1.16%
2,CCn1c(=O)c(C(=O)Nc2ccccc2F)c(O)c2ccccc21,13.5%
3,CCN(CC)C(=O)/C=C/c1ccccc1,12%
4,O=C(Oc1cccc(-n2cnnn2)c1)c1ccccc1,7.35%
5,CCCCCC(=O)N/N=C(\C)c1ccc(Cl)cc1,4.63%
6,O=C(CN(Cc1ccco1)S(=O)(=O)c1ccccc1)N/N=C/c1cccc(O)c1,5.51%
7,N#Cc1ccc(Cn2ccnc2C(=O)Nc2ccccc2)cc1,-86.8%
8,CC(C)C(=O)Nc1ccc2c(c1)C(=O)N(CCC(=O)O)C2=O,15.7%
9,Cc1ccc(/C=N/NC(=O)c2cccc(S(=O)(=O)Nc3ccccc3Cl)c2)o1,15.9%
10,O=C(OCc1nnc(-c2ccccc2)o1)c1cc(S(=O)(=O)N2CCOCC2)c(Cl)cc1Cl,6.57%
11,CCOC(=O)c1[nH]ncc1CN1CCN(Cc2ccc(C)cc2)C(CCO)C1 (centres unmarked),-9.93%
12,CCOC(=O)c1ccc(NC(=O)CCNS(=O)(=O)c2ccc3c(c2)oc(=O)n3C)cc1,6.23%
13,COc1cc(OC)cc(C(=O)N[C@H](C(=O)Nc2ccc3c(c2)OCO3)C(C)C)c1,11.4%
14,COc1ccc(Cl)cc1N1C(=O)CN(Cc2cc(OC)c(OC)c(OC)c2)C1=S,7.29%
15,CC1CCN(CC(O)COC2CC(C)CC(C)(C)C2)CC1.Cl (centres unmarked),-12.7%
16,COc1ccc(C(=O)Nc2ccccc2C(=O)NCCN2CCOCC2)cc1OC,10.7%
17,OCCn1c(CSc2nnc(-c3ccco3)n2-c2ccccc2)nc2ccc(Cl)cc21,8.13%
18,COc1ccc(-c2ccc3c(c2)S(=O)(=O)c2cccc(C(=O)NCCOc4ccccc4)c2C3=O)cc1OC,1.2%
19,Cc1cccc(N(C(=O)c2ccc(CN3CCOCC3)o2)C(C(=O)NC2CCCCC2)c2ccc(F)cc2)c1 (centres unmarked),9.88%
20,COC(=O)CNc1nc(Cl)nc(NC2CCCCC2)n1,12.7%
21,CN1CCN(c2ccc(-c3ccnn3C(=O)Nc3ccccc3)cc2)CC1,-0.435%
22,O=C(CCS(=O)(=O)Cc1ccccc1)Nc1nnc(C(F)(F)F)s1,15.4%
